The supplement of paper PMC4967469
IC50 is the fitted dose that halves viability relative to control wells, and lower means more sensitive; fits outside the tested doses are given as limits. For AUC the same curve is integrated over the 256-fold range of doses and scaled to a fraction: 1 means no effect, lower means more sensitive. For part of these data: The top dose, if marked as inferred, was derived from the fitted curves, not read from the paper.

What was measured:
Assay in all cases: Viability of human cancer cell lines after 72 h of drug (GDSC screen)
CI-1040 = compound: O=C(NOCC1CC1)c1ccc(F)c(F)c1Nc1ccc(I)cc1Cl [CI-1040]; conditions: top dose 10 µM; top dose inferred
Procedure: (§1)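 Human cancer cell lines in 384-well plates, medium with 10% serum, drug for 72 h over a 256-fold dose range (nine 2-fold or five 4-fold steps up to the top dose). Adherent lines were fixed and stained with the nucleic acid dye Syto60, suspension lines read with resazurin; signal relative to control wells, capped at 0 and 100%. One two-parameter sigmoid per drug and line, fitted in a mixed model over all curves with the slope shared within a line.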

XL-880 = compound: COc1cc2c(Oc3ccc(NC(=O)C4(C(=O)Nc5ccc(F)cc5)CC4)cc3F)ccnc2cc1OCCCN1CCOCC1 [XL-880]; conditions: top dose 5.12 µM; top dose inferred
Procedure: as §1

Rapamycin = compound: CO[C@H]1C[C@@H]2CC[C@@H](C)[C@@](O)(O2)C(=O)C(=O)N2CCCC[C@H]2C(=O)O[C@H]([C@H](C)C[C@@H]2CC[C@@H](O)[C@H](OC)C2)CC(=O)[C@H](C)/C=C(\C)[C@@H](O)[C@@H](OC)C(=O)[C@H](C)C[C@H](C)/C=C/C=C/C=C/1C [Rapamycin]; conditions: top dose 0.1 µM; top dose inferred
Procedure: as §1

JW-7-52-1 = compound: CCC(=O)N1CCN(c2ccc(-n3c(=O)ccc4cnc5ccc(-c6cnc7ccccc7c6)cc5c43)cc2C(F)(F)F)CC1 [JW-7-52-1]; conditions: top dose 1.2 µM; top dose inferred
Procedure: as §1

Z-LLNle-CHO = compound: CCCC[C@@H](C=O)NC(=O)[C@H](CC(C)C)NC(=O)[C@H](CC(C)C)NC(=O)OCc1ccccc1 [Z-LLNle-CHO]; conditions: top dose 2.56 µM; top dose inferred
Procedure: as §1

Tubastatin A = compound: CN1CCc2c(c3ccccc3n2Cc2ccc(C(=O)NO)cc2)C1 [Tubastatin A]; conditions: top dose 20 µM
Procedure: as §1

IPA-3 = compound: Oc1ccc2ccccc2c1SSc1c(O)ccc2ccccc12 [IPA-3]; conditions: top dose 32 µM; top dose inferred
Procedure: as §1

Temozolomide = compound: Cn1nnc2c(C(N)=O)ncn2c1=O [Temozolomide]; conditions: top dose 30 µM
Procedure: as §1

Cell Line	AUC (CI-1040)	IC50 (CI-1040) [µM]	AUC (XL-880)	IC50 (XL-880) [nM]	AUC (Rapamycin)	IC50 (Rapamycin) [nM]	AUC (JW-7-52-1)	IC50 (JW-7-52-1) [nM]	AUC (Z-LLNle-CHO)	IC50 (Z-LLNle-CHO) [nM]	AUC (Tubastatin A)	IC50 (Tubastatin A) [µM]	AUC (IPA-3)	IC50 (IPA-3) [µM]	AUC (Temozolomide)	IC50 (Temozolomide) [µM]
NCI-H1836 (small cell lung carcinoma, suspension)	0.985	> 10	0.87	> 5120	0.936	> 100	0.912	> 1200	0.966	> 2560	0.937	> 20	0.969	> 32	0.936	> 30
COLO-320-HSR (large intestine, suspension)	0.987	> 10	0.656	813	0.914	> 100	0.591	128	0.934	> 2560	0.954	> 20	0.802	13.4	0.976	> 30
CA46 (Burkitt lymphoma, suspension)	0.946	> 10	0.521	366	0.967	> 100	0.786	560	0.939	> 2560	0.579	2.09	0.61	4.11	0.983	> 30
UACC-257 (melanoma, adherent)	0.575	1.06	0.739	1850	0.971	> 100	0.565	118	0.751	1030	0.935	> 20	0.951	> 32	0.945	> 30
HL-60 (acute myeloid leukaemia, suspension)	0.286	0.168	0.692	1030	0.926	> 100	0.632	166	0.812	1200	0.882	17.5	0.743	9.06	0.979	> 30
A3-KAW (B-cell lymphoma, suspension)	0.964	> 10	0.627	663	0.348	2.6	0.484	68.3	0.745	671	0.854	11	0.97	> 32	0.988	> 30
DJM-1 (skin, adherent)	0.868	8.98	0.734	1480	0.979	> 100	0.879	> 1200	0.893	> 2560	0.988	> 20	0.988	> 32	0.973	> 30
SW954 (urogenital system, adherent)	0.82	5.85	0.368	137	0.913	> 100	0.448	54.1	0.829	1610	0.908	> 20	0.897	> 32	0.968	> 30
HD-MY-Z (Hodgkin lymphoma, adherent)	0.646	–	0.539	409	0.868	91.7	0.254	14.8	0.799	1230	0.904	> 20	0.806	16.4	0.981	> 30
NCI-H1666 (lung adenocarcinoma, semi-adherent)	0.485	0.565	0.863	> 5120	0.958	> 100	0.963	> 1200	0.976	> 2560	0.986	> 20	0.863	> 32	0.977	> 30
COLO-824 (breast, adherent)	0.987	> 10	0.719	1360	0.936	> 100	0.776	487	0.946	> 2560	0.979	> 20	0.951	> 32	0.982	> 30
SUP-M2 (anaplastic large cell lymphoma, suspension)	0.904	7.65	0.528	374	0.949	> 100	0.638	163	0.696	488	0.746	5.11	0.889	21.6	0.922	27.3
EW-3 (Ewing sarcoma, adherent)	0.942	> 10	0.686	1150	0.923	> 100	0.611	158	0.872	> 2560	0.907	> 20	0.875	> 32	0.95	> 30
NCI-H1838 (lung adenocarcinoma, adherent)	0.913	> 10	0.879	> 5120	0.965	> 100	0.9	> 1200	0.908	> 2560	0.986	> 20	0.963	> 32	0.981	> 30
NCI-H211 (small cell lung carcinoma, adherent)	0.938	> 10	0.639	764	0.739	29.3	0.608	147	0.986	> 2560	0.815	10.6	0.803	15.4	0.978	> 30
MPP-89 (mesothelioma, adherent)	0.871	> 10	0.673	1130	0.978	> 100	0.593	146	0.842	> 2560	0.894	> 20	0.98	> 32	0.887	> 30

Cell Line	AUC (CI-1040)	IC50 (CI-1040) [µM]	AUC (XL-880)	IC50 (XL-880) [nM]	AUC (Rapamycin)	IC50 (Rapamycin) [nM]	AUC (JW-7-52-1)	IC50 (JW-7-52-1) [nM]	AUC (Z-LLNle-CHO)	IC50 (Z-LLNle-CHO) [nM]	AUC (Tubastatin A)	IC50 (Tubastatin A) [µM]	AUC (IPA-3)	IC50 (IPA-3) [µM]	AUC (Temozolomide)	IC50 (Temozolomide) [µM]
MOLT-4 (lymphoblastic leukaemia, suspension)	0.827	4.63	0.562	456	0.855	57.5	0.493	71.9	0.775	826	–	–	0.818	13.9	0.977	> 30
PF-382 (T-cell lymphoblastic leukaemia, suspension)	0.988	> 10	0.535	393	0.768	33	0.517	82.7	0.692	509	0.868	14.5	0.659	5.2	0.99	> 30
BB30-HNC (head and neck, adherent)	0.722	2.63	0.531	387	0.813	52.8	0.462	59.2	0.78	1030	0.912	> 20	0.875	30.3	0.971	> 30
CTV-1 (acute myeloid leukaemia, suspension)	0.912	9.4	0.491	304	0.907	88.9	0.292	22.4	0.842	1310	0.934	> 20	0.716	7.06	0.981	> 30
LC4-1 (lymphoblastic leukaemia, suspension)	0.962	> 10	0.746	1770	0.678	20.8	0.53	91.5	0.723	740	0.794	10.3	0.906	> 32	0.974	> 30
Calu-6 (lung adenocarcinoma, adherent)	0.779	4.73	0.796	2810	0.984	> 100	0.633	185	0.915	> 2560	0.97	> 20	0.956	> 32	0.974	> 30
NCI-H23 (lung adenocarcinoma, adherent)	0.765	3.61	0.8	2450	0.987	> 100	0.583	126	0.842	1760	0.964	> 20	0.892	> 32	0.987	> 30
KARPAS-422 (B-cell lymphoma, suspension)	0.96	> 10	0.713	1270	0.718	25.6	0.562	110	0.754	849	0.947	> 20	0.682	6.38	0.971	> 30
EB-3 (Burkitt lymphoma, suspension)	0.954	> 10	0.698	1280	0.673	20.6	0.432	47.5	0.736	857	0.849	19	0.749	11.9	0.977	> 30
NCI-H1417 (small cell lung carcinoma, suspension)	0.677	2.16	0.746	1890	0.945	> 100	0.763	511	0.93	> 2560	0.855	> 20	0.967	> 32	0.958	> 30
LOUCY (T-cell lymphoblastic leukaemia, suspension)	0.971	> 10	0.516	350	0.92	> 100	0.485	68.7	0.691	489	0.862	12.2	0.929	> 32	0.989	> 30
NCI-H209 (small cell lung carcinoma, suspension)	0.907	> 10	0.699	1210	0.762	38.2	0.669	231	0.976	> 2560	0.986	> 20	0.984	> 32	0.976	> 30
KARPAS-231 (B-cell leukaemia, suspension)	0.854	5.22	–	–	0.286	1.84	0.372	36.4	0.796	901	–	–	0.628	4.12	0.989	> 30
CTB-1 (B-cell lymphoma, suspension)	0.887	> 10	0.758	2410	0.84	> 100	0.649	226	0.876	> 2560	–	–	0.737	12.4	0.965	> 30
EHEB (lymphoid neoplasm, suspension)	0.869	> 10	–	–	0.747	45.5	0.694	342	0.779	1580	–	–	0.698	9.42	0.957	> 30
IM-9 (myeloma, suspension)	0.913	> 10	–	–	0.987	> 100	0.982	> 1200	0.957	> 2560	–	–	0.731	8.14	0.935	> 30
